Reference: paper PMC7819943, “Rice protein-binding microarrays: a tool to detect cis-acting elements near promoter regions in rice”
The list shows a part of the results.

The sequences below were run against T1, OsWOX13 (Oryza sativa, UniProt Q5QMM3 1-267) (assay: protein-binding microarray (RPBM); PBS, 2% BSA, 51.3 ng/ul salmon testes DNA, 50 uM zinc acetate, 200 nM TF, 25 C, 1 h; high values mean tight binding). Conditions: protein: recombinant; tags: N-terminal polyhistidine and DsRed monomer fusion (pET32a); label: CyDye5-dUTP incorporated in the synthesized complementary strand; 3' TTTTT single-stranded linker to array surface; dsDNA, one strand shown.
T1 sequence: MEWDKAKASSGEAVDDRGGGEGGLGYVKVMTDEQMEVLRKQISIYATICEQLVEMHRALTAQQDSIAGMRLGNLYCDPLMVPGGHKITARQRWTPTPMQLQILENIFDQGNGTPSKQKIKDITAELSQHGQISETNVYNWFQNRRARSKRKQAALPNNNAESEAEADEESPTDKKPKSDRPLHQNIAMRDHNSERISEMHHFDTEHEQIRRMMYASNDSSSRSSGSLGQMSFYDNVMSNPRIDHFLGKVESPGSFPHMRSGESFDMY
In short: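 The binding signal is fluorescence intensity per feature, in arbitrary units, read on an Axon 4000B scanner. Polyhistidine- and DsRed-tagged transcription factors (N-terminal fusions) from E. coli BL21-CodonPlus were purified on Ni–NTA and applied at 200 nM for 1 h at 25 °C to a double-stranded, BSA-blocked custom Agilent array in buffer with 50 µM zinc acetate.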

| Sequence | binding signal |
| --- | --- |
| TACATTTAACAAAACTAATTTAATATTATAAATATTGCTACGGAGTCACCTAGTGCAG | 3780 fluorescence intensity (a.u.) |
| TCCTATTATTAGCTTTTAAATTGCTAAGGAGATATAAAAGCGGAGTCACCTAGTGCAG | 5940 fluorescence intensity (a.u.) |
| ATTAAATTAACTAGCTCCGACTATTCTAGACACAATTCGACGGAGTCACCTAGTGCAG | 19500 fluorescence intensity (a.u.) |
| AGGAGAAACAATTTGCAATCATCACATTGTTTAAAGAGATCGGAGTCACCTAGTGCAG | 5330 fluorescence intensity (a.u.) |
| CAAATTTAATCAATACATAAGAAATCCTGCTAAAATTTTGCGGAGTCACCTAGTGCAG | 7580 fluorescence intensity (a.u.) |
| CCCTAATTTGTTAATCTCGGGGTAGGAAAACCAAACAAACCGGAGTCACCTAGTGCAG | 17900 fluorescence intensity (a.u.) |
| AGAGTTAATTGGATCGATGCCACTACAAATATACCATTTTCGGAGTCACCTAGTGCAG | 20100 fluorescence intensity (a.u.) |
| CATCAATTAATTGACATGATACTATCTACCTTGCGTGTCGCGGAGTCACCTAGTGCAG | 65000 fluorescence intensity (a.u.) |
| GTCAATCATGGGATATTACTGTACTACCTCCGTCTCAGAACGGAGTCACCTAGTGCAG | 8920 fluorescence intensity (a.u.) |
| CGACAAATTAAGCTTTTATAAACTCTGCCTTTGATCCTTGCGGAGTCACCTAGTGCAG | 11300 fluorescence intensity (a.u.) |
| AGCAGCATAAATGCAATTAAATTTGTAGCAATCGAACATGCGGAGTCACCTAGTGCAG | 4680 fluorescence intensity (a.u.) |
| TGGGATCAGGAGTCTGCTGATTGGATTGGGCTGCGGACCTCGGAGTCACCTAGTGCAG | 14000 fluorescence intensity (a.u.) |
| ACCAAGCAATCATATATATGTCCATCATGCATGCCTAACACGGAGTCACCTAGTGCAG | 7750 fluorescence intensity (a.u.) |
| CATAATTGGTAAATTTGCGGGTTCAATTCCTGCTGGATGCCGGAGTCACCTAGTGCAG | 59500 fluorescence intensity (a.u.) |
| CCCTGATGAGGCCAGTTAGCACGGAGAGCAGTGCTAGCTACGGAGTCACCTAGTGCAG | 7920 fluorescence intensity (a.u.) |
| ATATATATATATATATATATATATATATAGAGCGCGCACTCGGAGTCACCTAGTGCAG | 44000 fluorescence intensity (a.u.) |
| ATCATCATCGTCATCACCGCGCATCCCCATAGTCCTCAACCGGAGTCACCTAGTGCAG | 3310 fluorescence intensity (a.u.) |
| GCCATAATTAGCTCCCTCTCATGCCCTCTCCAACCTCCACCGGAGTCACCTAGTGCAG | 29600 fluorescence intensity (a.u.) |
| GCAGCAAATTGATTGAAACAACCCTTAACCGGTGAGTGCTCGGAGTCACCTAGTGCAG | 49800 fluorescence intensity (a.u.) |
| ATGCCTCTAATTTCATGTTTAATAATCTTGTAATACATATCGGAGTCACCTAGTGCAG | 4140 fluorescence intensity (a.u.) |
| AATGATTTTCACATAAACTAGTTCAAGTTCTGTGAAGTTACGGAGTCACCTAGTGCAG | 16600 fluorescence intensity (a.u.) |

| Sequence | binding signal |
| --- | --- |
| TTGTTAGATTAGGGTTTCGAGTCTTTCGACGTCCTGCTTGCGGAGTCACCTAGTGCAG | 4560 fluorescence intensity (a.u.) |
| AAAATCATTGACAAAGCTTAATGTAAATCGAAACAATCGTCGGAGTCACCTAGTGCAG | 15700 fluorescence intensity (a.u.) |
| TTGGAATTAGATGATGAATGAATGAATGAATGAATGCTCACGGAGTCACCTAGTGCAG | 22300 fluorescence intensity (a.u.) |
| GGATGATTCAATCTTTGCTATTTGCCTTATCCACCTTAAACGGAGTCACCTAGTGCAG | 3700 fluorescence intensity (a.u.) |
| TATAAATAAATTAAGTGGGCTAGCATGTCCACCGAAACAGCGGAGTCACCTAGTGCAG | 12600 fluorescence intensity (a.u.) |
| AATAACTTTGCTTGAAATTGAAGTTAAGAGCACTTGACAGCGGAGTCACCTAGTGCAG | 3640 fluorescence intensity (a.u.) |
| TTGATAATACATGCTGATTGTGAAATCAATAAGTTTGATGCGGAGTCACCTAGTGCAG | 14400 fluorescence intensity (a.u.) |
| CACCTGACTGATTGGATTGGTATCGATCCAAGCCTATCAGCGGAGTCACCTAGTGCAG | 57100 fluorescence intensity (a.u.) |
| CCTTAACTAAACTATTTTCGGATTCAAAATTCCTCAAAACCGGAGTCACCTAGTGCAG | 4310 fluorescence intensity (a.u.) |
| AAATAAACATATTTTAATTGTTATTTAGAGAAAAGTGCACCGGAGTCACCTAGTGCAG | 18200 fluorescence intensity (a.u.) |
| TGCTTGTGACTGACATCAATGAATCTGGAGTCACGATCGACGGAGTCACCTAGTGCAG | 9050 fluorescence intensity (a.u.) |
| AATTTAATCATCATCCATCGGAATATTCTAATCCCCGTCCCGGAGTCACCTAGTGCAG | 5920 fluorescence intensity (a.u.) |
| CCAACCATTGCAAATTTGCAATCAAATTTGGAGTATCAAACGGAGTCACCTAGTGCAG | 15700 fluorescence intensity (a.u.) |
| TGACAAGCCTAATAGATATATAATTGATCCTCGTTGTTAACGGAGTCACCTAGTGCAG | 9220 fluorescence intensity (a.u.) |
| TAATTAATTAATTAAGGCATATATGCGCGAGGTACAAACGCGGAGTCACCTAGTGCAG | 39600 fluorescence intensity (a.u.) |
| GTTATCTTAAAAGTAAAATAAATTGACAAAGCAGCAGATACGGAGTCACCTAGTGCAG | 7620 fluorescence intensity (a.u.) |
| TGCTAATGACTGATTAATTAGGCTTAATAAATTCGTCTTGCGGAGTCACCTAGTGCAG | 35300 fluorescence intensity (a.u.) |
| GCACACGTAATTGAACTATATTAGACAGTACTAGCTCCAGCGGAGTCACCTAGTGCAG | 18300 fluorescence intensity (a.u.) |
| AGCTAATTAAGCTCCCTAGTCGTAGCAAGCAAGGATGTAACGGAGTCACCTAGTGCAG | 10800 fluorescence intensity (a.u.) |
| AGTACAAATAAATTGGTCAGTTTTATTTCATGATCCCATACGGAGTCACCTAGTGCAG | 12600 fluorescence intensity (a.u.) |
| CCGCTAATGGACCTATTAAGACCGGTTTTATATAGTTAAACGGAGTCACCTAGTGCAG | 8430 fluorescence intensity (a.u.) |
